# Experimental data from the supplement of paper PMC8728848.
# The other results are listed elsewhere or left out.
# Experiments:
# Experiment in all cases: glycan array binding signal (z-score within array); higher = stronger binding
# Settings in all cases: glycan notation: IUPAC condensed, linker removed
# [1] = biological target: Fuc(a1-2)[GalNAc(a1-3)]Gal(b1-4)GlcNAc(b1-3)Gal(b1-4)GlcNAc
# How it was run: (§1)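 Glycan array data came from 3228 arrays in the Consortium for Functional Glycomics database, and only arrays with an available protein sequence were kept. Glycan names were put into IUPAC-condensed notation, and columns mapping to the same glycan were averaged. The binding signal is a within-array Z-score, averaged across arrays of one protein sequence run at different concentrations or buffers and across linkers. A negative Z-score can be read as non-binding.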
# [2] = biological target: Fuc(a1-2)[GalNAc(a1-3)]Gal(b1-4)GlcNAc(b1-3)Gal(b1-4)GlcNAc(b1-3)Gal(b1-4)GlcNAc
# How it was run: as §1
# [3] = biological target: Fuc(a1-2)[GalNAc(a1-3)]Gal(b1-4)[Fuc(a1-3)]GlcNAc
# How it was run: as §1
# [4] = biological target: Fuc(a1-2)[GalNAc(a1-4)]Gal(b1-4)GlcNAc
# How it was run: as §1
# [5] = biological target: Fuc(a1-2)[GalNAc(b1-3)]Gal
# How it was run: as §1
# Fuc(a1-3)GlcNAc = biological target: Fuc(a1-3)GlcNAc
# How it was run: as §1
# [6] = biological target: Fuc(a1-3)[Gal(b1-4)]Glc6S
# How it was run: as §1
# [7] = biological target: Fuc(a1-3)[Gal(b1-4)]GlcNAc
# How it was run: as §1
# [8] = biological target: Fuc(a1-3)[Gal(b1-4)]GlcNAc(b1-2)Man(a1-3)[Fuc(a1-3)[Gal(b1-4)]GlcNAc(b1-2)Man(a1-6)]Man(b1-4)GlcNAc(b1-4)GlcNAc
# How it was run: as §1
# [9] = biological target: Fuc(a1-3)[Gal(b1-4)]GlcNAc(b1-2)Man(a1-6)[Gal(b1-4)GlcNAc(b1-2)Man(a1-3)]Man(b1-4)GlcNAc(b1-4)GlcNAc
# How it was run: as §1
# [10] = biological target: Fuc(a1-3)[Gal(b1-4)]GlcNAc(b1-3)Gal(b1-3)[Fuc(a1-4)]GlcNAc
# How it was run: as §1
# [11] = biological target: Fuc(a1-3)[Gal(b1-4)]GlcNAc(b1-3)GalNAc
# How it was run: as §1
# [12] = biological target: Fuc(a1-3)[Gal(b1-4)]GlcNAc(b1-4)Gal(b1-4)[Fuc(a1-3)]GlcNAc
# How it was run: as §1
# [13] = biological target: Fuc(a1-3)[Gal(b1-4)]GlcNAc(b1-4)Gal(b1-4)[Fuc(a1-3)]GlcNAc(b1-4)Gal(b1-4)[Fuc(a1-3)]GlcNAc
# How it was run: as §1
# [14] = biological target: Fuc(a1-3)[Gal(b1-4)]GlcNAc(b1-6)[Gal(b1-3)GlcNAc(b1-3)]Gal(b1-4)Glc
# How it was run: as §1
# [15] = biological target: Fuc(a1-3)[Gal(b1-4)]GlcNAc6S
# How it was run: as §1
# [16] = biological target: Fuc(a1-3)[Gal3S(b1-4)]Glc6S
# How it was run: as §1
# [17] = biological target: Fuc(a1-3)[Gal3S(b1-4)]GlcNAc
# How it was run: as §1
# [18] = biological target: Fuc(a1-3)[Gal3S(b1-4)]GlcNAc6S
# How it was run: as §1
# [19] = biological target: Fuc(a1-3)[GalNAc(b1-4)]GlcNAc
# How it was run: as §1
# Fuc(a1-4)GlcNAc = biological target: Fuc(a1-4)GlcNAc
# How it was run: as §1
# Fuc(b1-3)GlcNAc = biological target: Fuc(b1-3)GlcNAc
# How it was run: as §1
# Gal(a1-2)Gal = biological target: Gal(a1-2)Gal
# How it was run: as §1
# Gal(a1-3)Gal = biological target: Gal(a1-3)Gal
# How it was run: as §1
# Gal(a1-3)Gal(b1-3)GlcNAc = biological target: Gal(a1-3)Gal(b1-3)GlcNAc
# How it was run: as §1
# [20] = biological target: Gal(a1-3)Gal(b1-3)GlcNAc(b1-2)Man(a1-3)[Gal(a1-3)Gal(b1-3)GlcNAc(b1-2)Man(a1-6)]Man(b1-4)GlcNAc(b1-4)GlcNAc
# How it was run: as §1
# [21] = biological target: Gal(a1-3)Gal(b1-3)[Fuc(a1-4)]GlcNAc(b1-2)Man(a1-3)[Gal(a1-3)Gal(b1-3)[Fuc(a1-4)]GlcNAc(b1-2)Man(a1-6)]Man(b1-4)GlcNAc(b1-4)GlcNAc
# How it was run: as §1
# Gal(a1-3)Gal(b1-4)Glc = biological target: Gal(a1-3)Gal(b1-4)Glc
# How it was run: as §1
# Gal(a1-3)Gal(b1-4)GlcNAc = biological target: Gal(a1-3)Gal(b1-4)GlcNAc
# How it was run: as §1
# [22] = biological target: Gal(a1-3)Gal(b1-4)GlcNAc(b1-3)GalNAc
# How it was run: as §1
# [23] = biological target: Gal(a1-3)Gal(b1-4)[Fuc(a1-3)]GlcNAc
# How it was run: as §1
# [24] = biological target: Gal(a1-3)Gal(b1-4)[Fuc(a1-3)]GlcNAc(b1-2)Man(a1-3)[Gal(a1-3)Gal(b1-4)[Fuc(a1-3)]GlcNAc(b1-2)Man(a1-6)]Man(b1-4)GlcNAc(b1-4)GlcNAc
# How it was run: as §1
# Gal(a1-3)GalNAc = biological target: Gal(a1-3)GalNAc
# How it was run: as §1
# [25] = biological target: Gal(a1-3)[Gal(a1-4)]Gal(b1-4)GlcNAc
# How it was run: as §1
# [26] = biological target: Gal(a1-4)Gal(b1-3)GlcNAc(b1-2)Man(a1-3)[Gal(a1-4)Gal(b1-3)GlcNAc(b1-2)Man(a1-6)]Man(b1-4)GlcNAc(b1-4)GlcNAc
# How it was run: as §1
# Gal(a1-4)Gal(b1-4)Glc = biological target: Gal(a1-4)Gal(b1-4)Glc
# How it was run: as §1
# Gal(a1-4)Gal(b1-4)GlcNAc = biological target: Gal(a1-4)Gal(b1-4)GlcNAc
# How it was run: as §1
# [27] = biological target: Gal(a1-4)Gal(b1-4)GlcNAc(b1-2)Man(a1-3)[Gal(a1-4)Gal(b1-4)GlcNAc(b1-2)Man(a1-6)]Man(b1-4)GlcNAc(b1-4)GlcNAc
# How it was run: as §1
# [28] = biological target: Gal(a1-4)Gal(b1-4)GlcNAc(b1-3)Gal(b1-4)Glc
# How it was run: as §1
# Gal(a1-4)GlcNAc = biological target: Gal(a1-4)GlcNAc
# How it was run: as §1
# Gal(a1-6)Glc = biological target: Gal(a1-6)Glc
# How it was run: as §1
# Gal(b1-2)Gal = biological target: Gal(b1-2)Gal
# How it was run: as §1
# Gal(b1-3)Gal = biological target: Gal(b1-3)Gal
# How it was run: as §1
# Gal(b1-3)Gal(b1-4)GlcNAc = biological target: Gal(b1-3)Gal(b1-4)GlcNAc
# How it was run: as §1
# [29] = biological target: Gal(b1-3)Gal(b1-4)GlcNAc(b1-2)Man(a1-3)[Gal(b1-3)Gal(b1-4)GlcNAc(b1-2)Man(a1-6)]Man(b1-4)GlcNAc(b1-4)GlcNAc
# How it was run: as §1
binder,measurement,setting,value
"Tachylectin-2 (Tachypleus tridentatus), TAL2_TACTR (protein) VGGESMLRGVYQDKFYQGTYPQNKNDNWLARATLIGKGGWSNFKFLFLSPGGELYGVLNDKIYKGTPPTHDNDNWMGRAKKIGNGGWNQFQFLFFDPNGYLYAVSKDKLYKASPPQSDTDNWIARATEIGSGGWSGFKFLFFHPNGYLYAVHGQQFYKALPPVSNQDNWLARATKIGQGGWDTFKFLFFSSVGTLFGVQGGKFYEDYPPSYAHDNWLARAKLIGNGGWDDFRFLFF",glycan array binding signal (z-score),[1],4.29
same,glycan array binding signal (z-score),[2],4.11
same,glycan array binding signal (z-score),[3],3.69
same,glycan array binding signal (z-score),[4],3.88
same,glycan array binding signal (z-score),[5],-0.322
same,glycan array binding signal (z-score),Fuc(a1-3)GlcNAc,-0.364
same,glycan array binding signal (z-score),[6],-0.166
same,glycan array binding signal (z-score),[7],-0.314
same,glycan array binding signal (z-score),[8],-0.271
same,glycan array binding signal (z-score),[9],-0.276
same,glycan array binding signal (z-score),[10],-0.324
same,glycan array binding signal (z-score),[11],-0.292
same,glycan array binding signal (z-score),[12],-0.062
same,glycan array binding signal (z-score),[13],-0.312
same,glycan array binding signal (z-score),[14],-0.294
same,glycan array binding signal (z-score),[15],-0.31
same,glycan array binding signal (z-score),[16],-0.082
same,glycan array binding signal (z-score),[17],-0.337
same,glycan array binding signal (z-score),[18],-0.287
same,glycan array binding signal (z-score),[19],-0.106
same,glycan array binding signal (z-score),Fuc(a1-4)GlcNAc,-0.328
same,glycan array binding signal (z-score),Fuc(b1-3)GlcNAc,-0.243
same,glycan array binding signal (z-score),Gal(a1-2)Gal,-0.296
same,glycan array binding signal (z-score),Gal(a1-3)Gal,-0.313
same,glycan array binding signal (z-score),Gal(a1-3)Gal(b1-3)GlcNAc,-0.271
same,glycan array binding signal (z-score),[20],-0.29
same,glycan array binding signal (z-score),[21],-0.297
same,glycan array binding signal (z-score),Gal(a1-3)Gal(b1-4)Glc,-0.301
same,glycan array binding signal (z-score),Gal(a1-3)Gal(b1-4)GlcNAc,-0.091
same,glycan array binding signal (z-score),[22],-0.289
same,glycan array binding signal (z-score),[23],-0.066
same,glycan array binding signal (z-score),[24],-0.291
same,glycan array binding signal (z-score),Gal(a1-3)GalNAc,-0.304
same,glycan array binding signal (z-score),[25],-0.15
same,glycan array binding signal (z-score),[26],-0.292
same,glycan array binding signal (z-score),Gal(a1-4)Gal(b1-4)Glc,-0.324
same,glycan array binding signal (z-score),Gal(a1-4)Gal(b1-4)GlcNAc,-0.344
same,glycan array binding signal (z-score),[27],-0.29
same,glycan array binding signal (z-score),[28],-0.296
same,glycan array binding signal (z-score),Gal(a1-4)GlcNAc,0.001
same,glycan array binding signal (z-score),Gal(a1-6)Glc,-0.265
same,glycan array binding signal (z-score),Gal(b1-2)Gal,-0.365
same,glycan array binding signal (z-score),Gal(b1-3)Gal,-0.284
same,glycan array binding signal (z-score),Gal(b1-3)Gal(b1-4)GlcNAc,-0.295
same,glycan array binding signal (z-score),[29],-0.291
